From PubChem BioAssay (NCI)
Several values for one entry are separate records, joined by “and”; a condition that tells them apart may be missing. Equal entries are not always repeated.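 Dose response: 5 concentrations. Exposure: 48 h. Format: 96-well plates. Endpoint: linear interpolation; highest concentration if not reached. GI50 marks 50% less growth. TGI: concentration producing complete growth inhibition.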 Square brackets hold non-standard residues; d marks the D form. Peptide text beside a SMILES is read from it. * marks the point of attachment. AllylGly = C=CC[CH](N)C(=O)O; Boc = CC(C)(C)OC(=O)*; OtBu = CC(C)(C)O*

What follows are compounds tested on NCI-H322M lung (assay: NCI-60 cell line screen, 48 h).

| SMILES | TGI | GI50 |
| --- | --- | --- |
| COc1cc(CCCOC(=O)/C=C/c2ccc(O)c(O)c2)cc(O)c1O | > 100 µM |  |
| O=C1C(Br)=CC2(C=C1Br)CCN=c1c2c(O)c2nc3ccccc3c3ccnc1c23 | 16.7 µM | 9.02 µM |
| CN(C)c1ccc(/C=C(\C#N)C(N)=C(C#N)C#N)cc1 | > 100 µM |  |
| ClC1=C(Cl)C(Cl)=C(Cl)C1=C/C=C/c1ccccc1 | 2.36 µM | 0.729 µM |
| Cn1c2c(c3ccccc31)C1CCCCC1C1C(=O)NC(=O)C21 (stereo not drawn) | > 100 µM |  |
| CC(C)(C)c1nc2c(o1)C(=O)c1ccccc1C2=O | 5.73 µM |  |
| COc1ccc(C(O)/C(=N\NC(N)=S)c2nc3ccc([N+](=O)[O-])cc3[nH]c2=O)cc1OC (stereo not drawn) | > 100 µM |  |
| O=C(/C=C/c1ccc(Cl)cc1)Oc1ccc(/C=C2\CCCCC2=O)cc1 | > 100 µM |  |
| CCC(C)n1cc(C)c2c(C(=O)NCc3c(C)cc(C)[nH]c3=O)cc(Br)cc21 (stereo not drawn) | > 100 µM | > 100 µM |
| C[C@]12CCC[C@H](Cl)C1(O)C[C@H](C(=O)O)CC2 (stereo partly drawn) | > 100 µM |  |
| CN(C)c1ccc(/C=C(/NC(=O)c2ccccc2)c2nc3ccc(Cl)cc3[nH]2)cc1 | > 100 µM | > 100 µM |
| Cc1cccc2c1Oc1cc(Cl)ccc1C2NC(=O)CCN1CCN(CCO)CC1 (stereo not drawn) | 32 µM |  |
| Cc1ccc(-c2nc(SCC(=O)O)n[nH]2)cc1 | > 100 µM |  |
| COc1ccc(/C=C2\C[C@H]3[C@@H]4CCC5=C[C@@H](N6CCCC6)CC[C@]5(C)[C@H]4CC[C@]3(C)[C@H]2O)cc1 | 12.8 µM |  |
| Cc1cc2c(=O)n(-c3ccc(F)cc3)c(C)nc2c(C(=O)O)c1C | > 100 µM |  |
| Cc1cc(C)nc(NS(=O)(=O)c2ccc(Nc3c4ccccc4nc4c(C(=O)NCCCN(CCO)CCO)cccc34)cc2)n1 | 57.8 µM |  |
| C[C@H](Nc1c(O)c2c(c(O)c1Cl)C(=O)C=CC2=O)C(=O)Nc1ccc([N+](=O)[O-])cc1 | 5.45 µM |  |
| COc1cc(C2C(Cl)C(=O)N2NC(=O)c2ccccc2O)ccc1O (stereo not drawn) | > 100 µM |  |
| CN(C)CCNc1ccc2c(=O)n(CCN(C)C)c(=O)n3c4ccc([N+](=O)[O-])cc4c(=O)c1c23 | 2.21 µM |  |
| CCOC(=O)c1sc2nc3sc(N=Nc4ccc(Cl)cc4)c(O)n3c(=S)c2c1C | 54.2 µM | 17.6 µM |
| O=C1C(CN2CCCCC2)CCCC1CN1CCCCC1 (stereo not drawn) | > 100 µM |  |
| CCC[CH2][Sn]([CH2]CCC)([O]C(=O)c1cc(F)cc(F)c1)[O]C(=O)c1cc(F)cc(F)c1 | 3.2 µM | 1.74 µM |
| Cc1ccc(C2NC(=S)NC3=C2CCOc2c3ccc3ccccc23)cc1 (stereo not drawn) | > 100 µM | > 100 µM |
| CC1=C2c3c(C)ccc4ccc(C)c(c34)C2(O)C(C)C1=O (stereo not drawn) | > 100 µM |  |

| SMILES | TGI | GI50 |
| --- | --- | --- |
| COC1(OC)CC2C=C(S(=O)(=O)c3ccccc3)C1N(Cc1ccccc1)C2=O (stereo not drawn) | > 100 µM |  |
| COCC1CCCN1c1ccc(/C=C(/C#N)C(N)=S)cc1 (stereo not drawn) | > 100 µM | > 100 µM |
| COCC1OC(OC2C3=C(C(C)C)CCC3(C)/C=C3\C(CCC3(O)COC)C(C)C2O)C(O)C2OC3OC12OC3(C)C1CO1 (stereo not drawn) | > 100 µM |  |
| COC1=CC(O)(CC(N)=O)c2ccccc2C1=O (stereo not drawn) | > 100 µM |  |
| CC(=O)c1ccc(NC(=O)CSc2nnc(-c3cc(-c4ccc(C)cc4)nc4ccccc34)o2)cc1 | > 100 µM | > 100 µM |
| CC(C)c1ccccc1NC(=O)C(=O)Cc1nc2ccccc2s1 | > 100 µM |  |
| Clc1ccc(SCCSCCCCCCCCCCSCCSc2ccc(Cl)cc2)cc1 | > 100 µM |  |
| COc1cccc(NC(=S)Nn2c(C)nc3ccccc3c2=O)c1 | > 100 µM |  |
| NS(=O)(=O)c1cc2c(cc1Cl)NC(Cc1ccccc1)NS2(=O)=O (stereo not drawn) | > 100 µM |  |
| CC1OC(OC2C(O[C@H]3CC[C@@]4(C)[C@@H](CC[C@@H]5[C@@H]4CC[C@]4(C)[C@@H]6[C@H](C[C@@H]54)O[C@]4(CC[C@@H](C)CO4)[C@H]6C)C3)OC(CO)C(OC3OC(CO)C(O)C(OC4OCC(O)C(O)C4O)C3OC3OCC(O)C(O)C3O)C2O)C(O)C(O)C1O (stereo partly drawn) | 2.56 µM |  |
| COC(=O)C(CCCC1(c2ccccc2)OCCO1)C(C)=O (stereo not drawn) | > 100 µM |  |
| CCCCCCCC/C=C/CCCCCCCCC1=NCCN1CCO | 11.3 µM | 3.29 µM |
| Cc1ccc(-c2c(C#N)c(S)n(NS(=O)(=O)c3ccc(C)cc3)c(=O)c2C#N)cc1 | > 100 µM |  |
| Cc1cc(N(CCC#N)S(C)(=O)=O)ccc1C=O | > 100 µM |  |
| CN1C2(c3ccccc3)c3c(-c4ccccc4)sc(-c4ccccc4)c3C1(c1ccccc1)C1C(=O)N(c3ccccc3)C(=O)C12 (stereo not drawn) | > 100 µM |  |
| CC(=O)Oc1cc(OC(C)=O)c2c(=O)c3ccccc3[nH]c2c1 | > 100 µM |  |
| COc1ccc(-c2ccc(/C=N/n3c(COc4ccccc4Cl)nn(CN4CCN(C)CC4)c3=S)o2)c([N+](=O)[O-])c1 | 58.7 µM | 23.5 µM |
| COc1ccc(C(=O)c2ccc(OC)c(OC)c2OC)cc1 | > 100 µM | 7.72 µM |
| CC(=O)Nc1ccc(Sc2ccc([N+](=O)[O-])o2)cc1 | 26.1 µM | 12.1 µM |
| C=C(C)[C@@H]1CC[C@]2(C)[C@H](C(=O)C=C3[C@@H]4C[C@](C)(C(=O)N5CCN(C)CC5)CC[C@]4(C)CC[C@]32C)[C@@]1(C)CCC#N | 15.6 µM | 8.67 µM |
| CC1=CC(=O)CCC2(C)C1CC[C@@H]2OC=O (stereo partly drawn) | > 100 µM |  |
| O=C(O)C1C(C(=O)Nc2ccc3c(c2)Cc2ccccc2-3)C2(Cl)C(Cl)=C(Cl)C1(Cl)C2(Cl)Cl (stereo not drawn) | > 100 µM |  |
| CCCCCCOc1ccc(C(=O)NOCc2ccccc2)cc1 | > 100 µM |  |
| Brc1ccc(-c2nnc(-c3nn(-c4ccccc4)c4nc5ccccc5nc34)o2)cc1 | > 100 µM |  |

| SMILES | TGI | GI50 |
| --- | --- | --- |
| C=CCC(NC(=O)C(CC(=O)OC(C)(C)C)NC(=O)OC(C)(C)C)C(=O)OC (stereo not drawn) (Boc-Asp(OtBu)-[AllylGly]-OMe; configuration not given here) | > 100 µM |  |
| CCC1=CC2CN3CCc4c([nH]c5ccccc45)C(C(=O)OC)(C2)C13 (stereo not drawn) | 92.3 µM |  |
| COc1ccc2nc3ccc(OC)cc3c(S(=O)(=O)Cc3ccc([N+](=O)[O-])cc3)c2c1 | > 100 µM |  |
| CCCCCCCCCCCCCCCCCC1=NCCN1CS(=O)(=O)O | 20.2 µM | 7.02 µM |
| CCOC(=O)C(=O)Nc1ccc(C)cc1C | > 100 µM |  |
| NC(N)=NS(=O)(=O)c1ccc(NCc2c3ccccc3nc3ccccc23)cc1 | > 100 µM |  |
| N#Cc1c(-c2ccco2)cc(-c2ccc(NCc3nc4ccccc4[nH]3)cc2)nc1N | > 100 µM |  |
| C=C1C[C@](OC)([C@H](O)C(=O)N[C@@H](OC)[C@@H]2C[C@@H](O)C(C)(C)[C@@H](C[C@@H](COC)OC)O2)O[C@H](C)[C@@H]1C | 0.00406 µM | 0.00141 µM |
| Cc1c(CCOC=O)c(=O)[nH]c2nncn12 | > 100 µM |  |
| CC1/C=C/C=C/C=C/C=C/C=C/C=C/C=C/C(O[C@@H]2O[C@H](C)[C@H](O)[C@@H](O)[C@@H]2N)CC(O)C(C(=O)O)C(O)CC(=O)CC(O)CC(O)CC(O)CC(=O)CCCC(=O)CC(=O)OC1C(C)CC(C)C(O)CC(=O)c1ccc(N)cc1 (stereo partly drawn) | 0.112 µM and 0.663 µM | 0.0568 µM and 0.233 µM |
| CCOc1ccc(/C(O)=C/c2nc3ccccc3nc2/C=C(\O)c2ccc(OCC)cc2)cc1 | > 100 µM |  |
| O=C(NNC(=S)Nc1ccccc1)c1ccccc1Nc1ccccc1C(=O)NNC(=S)Nc1ccccc1 | 66.1 µM |  |
| Cn1c(=O)cc(NCc2ccc(Cl)cc2)[nH]c1=O | > 100 µM |  |
| Cc1cccc2c1Oc1ccccc1C2NC(=O)c1ccc([N+](=O)[O-])cc1 (stereo not drawn) | > 100 µM |  |
| NC(CSC(c1ccccc1)(c1ccccc1)c1ccc(Cl)cc1)C(=O)O (stereo not drawn) | > 79.9 µM | 0.338 µM |
| COc1cc2c(c(C)c1O)[C@H]1COc3ccccc3[C@H]1O2 | > 100 µM |  |
| CCCc1cc(=O)oc2c3c(c4c(c12)OC(C)(C)C=C4)O[C@@H](C)[C@H](C)C3=O | 30.9 µM |  |
| CC(=O)N1CC(Nc2ccc(OC(F)(F)F)cc2)=CC1=O | > 100 µM | > 100 µM |
| COc1ccc(/C=C2\CCCCC2=O)cc1 | > 100 µM |  |
| CCOc1ccc([C@@H]2[C@@H](Oc3ccccc3)C(=O)N2c2cc(OC)c(OC)c(OC)c2)cc1 | > 100 µM | 0.831 µM |
| CCOC(=O)c1csc(NC(=O)CCN2CCCCC2)n1 | > 100 µM |  |
| Cc1[nH]c(=O)nc(N/N=C/c2ccc(Cl)cc2)c1C(=O)NC(C)(CO)CO | > 100 µM |  |
| CC1(C2(C)OC(=O)c3ccccc32)OC(=O)c2ccccc21 (stereo not drawn) | > 100 µM |  |
| COC(=O)c1ccc2c(c1)nc(-c1cc3ccccc3[nH]c1=O)n2-c1cc(C(C)(C)C)[nH]n1 | > 100 µM | 1.28 µM |

| SMILES | TGI | GI50 |
| --- | --- | --- |
| CC(=O)C(=[N+]=[N-])C(=O)OC(C)(C)C#N | > 10 µM |  |
| O=C1CN2Cc3cc(N4CCOCC4)ccc3N=C2N1 | > 100 µM |  |
| Cc1cn(C2CCC(/C=N\O)O2)c(=O)[nH]c1=O (stereo not drawn) | > 100 µM |  |
| C/C(=N\NC(=O)c1ccncc1)c1ccc2ccccc2c1O | > 100 µM |  |
| O=C1Nc2cccc(Cl)c2/C1=C\c1c(Cl)nc2sccn12 | > 100 µM |  |
| CCCN(CCCC(NC(C)=O)C(=O)NCc1ccccc1)C(=O)NC (stereo not drawn) | > 100 µM |  |
| COc1ccc(C2=NNC(=O)OC2c2ccccc2)cc1 (stereo not drawn) | > 100 µM |  |
| COc1ccc(Nn2c(SCC(=O)Nc3nc(-c4ccc(Cl)cc4)cs3)nc(C)c2C)cc1 | > 100 µM | > 100 µM |
| CCCCc1c2c(nc3c1CCCC3O)/C(=C/c1ccccc1)CCC2 (stereo not drawn) | > 100 µM |  |
| COc1cc(-c2oc3c(OC)c(O)c(OC)c(O)c3c(=O)c2OC)cc(O)c1OC | > 100 µM |  |
| O=C(O)C1CCCN1Cc1cc2ccccc2c2ccccc12 (stereo not drawn) | > 100 µM |  |
| CC(C)NC(=O)CN1CCN(C2=CC(=O)c3c(O)ccc(O)c3C2=O)CC1 | 31.5 µM |  |
| COc1cc(C(=O)/C=C/c2cc(C(=O)c3cc(OC)c(OC)c(OC)c3)ccc2OC)ccc1N | 6.32 µM | 1.8 µM |
| Cn1nc(/C=C\C(=O)N2CC(CCl)c3c2cc(N)c2ccccc32)cc1/C=C/C(=O)N1CC(CCl)c2c1cc(N)c1ccccc21 (stereo not drawn) | 0.0245 µM |  |
| CC(C)(C)N(Cc1ccc2c(c1)OCO2)C(=O)/C=C\S(=O)c1ccccc1 (stereo not drawn) | 24.5 µM |  |
| O=c1cc(N2CCOCC2)[nH]c(=O)n1-c1cccc(C(F)(F)F)c1 | > 100 µM |  |
| N#CC(C(=O)/C(=N\Nc1nc(=S)[nH]n1N)C(C#N)c1ccc(Cl)cc1)c1ccc(Cl)cc1 (stereo not drawn) | > 100 µM |  |
| CC(C)(C)[Si](C)(C)OCC1OC(n2cnc3c(NC(=O)c4ccccc4)ncnc32)CC1O (stereo not drawn) | > 100 µM |  |
| CS(=O)CCCCCN=C=S (stereo not drawn) | 20.5 µM | 4.96 µM |
| O=C1CCC[C@]2(CCC[C@@H](O)C2)N1 | > 100 µM |  |
| CC1CC[C@@]2(OC1)OC1C[C@H]3[C@@H]4C/C(=N\N(C)C)[C@@]5(O)CC(O)CC[C@]5(C)[C@H]4CC[C@]3(C)C1[C@@H]2C (stereo partly drawn) | 82.9 µM |  |
| CCCC/C=C/C1Cc2ccccc2CN1S(=O)(=O)c1ccc(C)cc1 (stereo not drawn) | > 100 µM |  |
